Source: PubChem BioAssay AID624417 (National Center for Advancing Translational Sciences (NCATS), 2012)
Hit rate of the full screen: of about 410,000 compounds, about 6,400 (1.6%) were called active. Inconclusive results, whose numbers are uncertain, are shown with a selection of clear calls. Calls come from the whole dose curve; as a rule, active = well fitted inhibition curve with a large enough effect; inconclusive = small, poorly fitted or top-dose-only effect; inactive = no such curve, though single readings can be large or run the other way. Potencies of inconclusive entries are left out as doubtful fits.

Target: Glucagon-like peptide 1 receptor (Homo sapiens) (UniProt P43220)
Sequence of UniProt P43220 (P43220 whole entry, looked up): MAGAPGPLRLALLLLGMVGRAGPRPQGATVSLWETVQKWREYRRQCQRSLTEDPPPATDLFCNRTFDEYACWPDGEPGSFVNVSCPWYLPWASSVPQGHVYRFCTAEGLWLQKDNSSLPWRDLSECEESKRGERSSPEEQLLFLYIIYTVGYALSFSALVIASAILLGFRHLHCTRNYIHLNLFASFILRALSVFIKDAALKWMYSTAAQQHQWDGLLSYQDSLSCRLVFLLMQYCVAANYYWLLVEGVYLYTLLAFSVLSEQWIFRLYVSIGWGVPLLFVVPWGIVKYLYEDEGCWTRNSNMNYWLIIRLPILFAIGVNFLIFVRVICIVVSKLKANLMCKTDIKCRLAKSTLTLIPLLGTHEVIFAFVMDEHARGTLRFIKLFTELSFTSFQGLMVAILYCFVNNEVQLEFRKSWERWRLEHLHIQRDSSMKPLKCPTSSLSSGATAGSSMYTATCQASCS
Test: qHTS of GLP-1 Receptor Inverse Agonists (Inhibition Mode); note: nearly all actives have a fitted effect of over 55% in size
Settings: HEK293 GLP-1R CRE-luciferase, luminescence, 24 h, GLP-1R form is constitutively active; activity change, negative = inhibition: at 38.3 µM (top of the series) unless noted
Method in brief: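 Seeding at 200 cells/uL, 12 h culture, 24 hr compound treatment, then luciferase reagent and a luminescence read; cells are HEK293 stably expressing a constitutively active GLP-1R plus cAMP-responsive luciferase.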
% is set by controls: 0 for no effect and ±100 for the full control effect; potency is the fitted concentration of half-maximal effect; tags give direction and shape of the fitted curve.

Structure (SMILES) | Potency | activity change, negative = inhibition
CCOC(=O)CN1CC(C)(C)N(CC(=O)OCC)CC1(C)C | inactive | 
CNc1ccccc1C(C)(C)c1cc(-c2cccc([N+](=O)[O-])c2)no1 | inconclusive [inhibitor, single point] | 
O=C1C=C(NCCOC23CC4CC(CC(C4)C2)C3)C2(CCCCC2)O1 | inconclusive [inhibitor, full curve, poor fit] | 
COC(=O)c1cc(C)sc1NC(=O)CCc1ccccc1 | inconclusive [inhibitor, single point] | 
CCOc1ccccc1C(=O)Nc1cc(-c2nc3cccnc3s2)ccc1C | inactive | 
Fc1ccccc1-c1csc(=Nc2cccnc2)n1CCCn1ccnc1 | inconclusive [inhibitor, partial curve] | 
COc1ccc(NC(=O)c2ccco2)cc1NC(=O)c1cccc(OC(C)C)c1 | inconclusive [inhibitor, partial curve] | 
COc1ccc(CNCCC2(Cc3ccccc3)CC(C)N(C)CC2C)cc1OC (centres undefined) | inconclusive [inhibitor, partial curve, poor fit] | 
COc1ccccc1N1CCN(C(=O)c2cc3n(n2)C(C(F)(F)F)CC(c2ccco2)N3)CC1 (centres undefined) | inconclusive [inhibitor, partial curve, poor fit] | 
COc1cc(NC(=O)c2cc([N+](=O)[O-])ccc2NC(=O)CNC2CCCCC2)cc(OC)c1 | inconclusive [inhibitor, full curve] | 
CCOC(=O)C(=O)Nc1ccc(Oc2ccccc2)cc1 | inactive | 
O=C(O)COc1ccccc1C1Nc2ccccc2-c2nnc(SCc3ccc(Cl)cc3)nc2O1 (centres undefined) | inactive | 
CCOC(=O)c1c(C)c(C)n(Cc2ccc(OC)c(OC)c2)c1C | inconclusive [inhibitor, single point] | 
COc1ccc(-n2c(=S)[nH]c3cc(C(=O)NCc4ccco4)ccc3c2=O)c(OC)c1 | inactive | 
CCOC(=O)C1CCCN(CC(=O)NC2=Nc3ccccc3N=C(C)C2c2ccccc2)C1 (centres undefined) | inconclusive [inhibitor, single point] | 
N#CCCN(C(=O)CSc1ccc2c(c1)OCCO2)c1ccccc1 | inactive | 
N#Cc1ccc(/C=C\c2nccc3c2[nH]c2ccccc23)cc1 | inconclusive [inhibitor, partial curve, poor fit] | 
O=C(NCCSc1ccc(Cl)cc1)c1ccc(CN2CCOCC2)cc1 |  | inactive: -5.84% [at 7.66 µM]
CN(C)NC(=S)Nc1cccc(Cl)c1 | inactive | 
CC(C)CCNC1c2ccccc2C(=O)N1Cc1ccccc1 (centres undefined) | inconclusive [inhibitor, partial curve, poor fit] | 
CCOc1ccc2[nH]c(C)c(CN(C)C)c(=O)c2c1 | inactive | 
Cc1ccc(C(C)C)c(OCCCn2c(=O)oc3ccc(C)cc32)c1 | inconclusive [inhibitor, single point] | 

Structure (SMILES) | Potency | activity change, negative = inhibition
CCc1ccccc1NC(=O)c1cnn(-c2ccc(F)cc2)c1C1CCNCC1 | inactive | 
O=S(=O)(c1ccccc1)N1CCN=C1SCc1ccc(Cl)c(Cl)c1 | inconclusive [inhibitor, single point] | 
Cc1c(NC(=O)C(F)(F)F)ccc2nc3c(=O)n(C)c(=O)n(C)c3nc12 | inactive | 
COc1ccccc1/C=N/NC(=O)c1nnn(-c2nonc2N)c1-c1cccs1 | inconclusive [inhibitor, partial curve, poor fit] | 
CSc1ccc(C(O)c2ncc(-c3ccccc3Cl)[nH]2)cc1 (centres undefined) | inconclusive [inhibitor, partial curve, poor fit] | 
CC1(C)CC(=O)C2=C(C1)c1c(ccc3ccccc13)NC2c1cc([N+](=O)[O-])cc([N+](=O)[O-])c1O (centres undefined) | inconclusive [inhibitor, single point] | 
Clc1ccc2nc(CN3CCCCCC3)cn2c1 | inactive | 
Cc1cccc(OCCOCCn2c(-c3ccc(Cl)cc3)nc3ccccc3c2=O)c1C | inactive | 
CCCCN(Cc1ccco1)C(=O)c1cc2c(s1)-c1c(C)cccc1OC2 | inconclusive [inhibitor, single point] | 
Cc1ccc2oc(=O)n(Cc3ccc(OC(C)C)cc3)c2c1 | inconclusive [inhibitor, single point] | 
CCOC(=O)c1ccccc1NC(=O)c1nn(-c2ccc(C)cc2)c(=O)n(C)c1=O | inactive | 
CCc1ccccc1NC(=O)Cn1nnc(C(=O)Nc2ccc(OC)c(OC)c2)c1N | inactive | 
CC(=O)NC1=NC(=O)/C(=C/c2cn(C(C)=O)nc2-c2ccccc2)S1 | inconclusive [inhibitor, partial curve, poor fit] | 
Cc1ccccc1Cn1c(=O)n(CCC(=O)NCc2ccc3c(c2)OCO3)c(=O)c2ccccc21 | inactive | 
NS(=O)(=O)c1ccc(CCNc2nc3c(-c4cccc(F)c4)nnn3c3ccccc23)cc1 | inactive | 
CN(C(=O)CN1CCN(c2ccccc2F)CC1)C1CCCc2ccccc21 (centres undefined) | inconclusive [inhibitor, partial curve, poor fit] | 
COc1ccc(-c2cc([C@H]3[C@H]4C=CC[C@@H](C)[C@@H]4C(=O)N3Cc3ccccc3)ccc2F)cc1 | inconclusive [inhibitor, partial curve, poor fit] | 
Cc1ccc(NC(=O)COc2coc(CN3CCN(Cc4ccccc4)CC3)cc2=O)cc1 | inactive | 
Cc1ccc(S(=O)(=O)N2CCC(=O)N(C(COCc3cccc(C)c3)Cc3ccccc3)CC2)cc1 (centres undefined) | inconclusive [inhibitor, single point] | 
COc1cc(CNC(C)(C)CO)cc(Br)c1OCc1ccccc1 | inconclusive [inhibitor, partial curve, poor fit] | 
OC1CCCC1NCc1ccnc2cc(Cl)ccc12 (centres undefined) | inconclusive [inhibitor, single point] | 
O=C1CS/C(=N/N=C/c2ccccc2OS(=O)(=O)c2ccccc2)N1 | inconclusive [inhibitor, partial curve, poor fit] | 
